Here are results for six molecules from the supplement of paper PMC12423691.

The list shows a part of the results. Binding of human transcription factors and regulators to the viral nucleoprotein by AlphaScreen, crude cell-free proteins, amounts not normalised, one pass. Fold of the Venus control; higher = more signal. No active / inactive call. Single-pass screen; sequences are the whole Swiss-Prot entries looked up by name.

First the molecules themselves.
B1: PBX2, P40425 (protein)
chain: MDERLLGPPPPGGGRGGLGLVSGEPGGPGEPPGGGDPGGGSGGVPGGRGKQDIGDILQQIMTITDQSLDEAQAKKHALNCHRMKPALFSVLCEIKEKTGLSIRSSQEEEPVDPQLMRLDNMLLAEGVAGPEKGGGSAAAAAAAAASGGGVSPDNSIEHSDYRSKLAQIRHIYHSELEKYEQACNEFTTHVMNLLREQSRTRPVAPKEMERMVSIIHRKFSAIQMQLKQSTCEAVMILRSRFLDARRKRRNFSKQATEVLNEYFYSHLSNPYPSEEAKEELAKKCGITVSQVSNWFGNKRIRYKKNIGKFQEEANIYAVKTAVSVTQGGHSRTSSPTPPSSAGSGGSFNLSGSGDMFLGMPGLNGDSYSASQVESLRHSMGPGGYGDNLGGGQMYSPREMRANGSWQEAVTPSSVTSPTEGPGSVHSDTSN
B2: HEY1, Q9Y5J3 (protein)
chain: MKRAHPEYSSSDSELDETIEVEKESADENGNLSSALGSMSPTTSSQILARKRRRGIIEKRRRDRINNSLSELRRLVPSAFEKQGSAKLEKAEILQMTVDHLKMLHTAGGKGYFDAHALAMDYRSLGFRECLAEVARYLSIIEGLDASDPLRVRLVSHLNNYASQREAASGAHAGLGHIPWGTVFGHHPHIAHPLLLPQNGHGNAGTTASPTEPHHQGRLGSAHPEAPALRAPPSGSLGPVLPVVTSASKLSPPLLSSVASLSAFPFSFGSFHLLSPNALSPSAPTQAANLGKPYRPWGTEIGAF
B3: RLIM, Q9NVW2 (protein)
chain: MENSDSNDKGSGDQSAAQRRSQMDRLDREEAFYQFVNNLSEEDYRLMRDNNLLGTPGESTEEELLRRLQQIKEGPPPQNSDENRGGDSSDDVSNGDSIIDWLNSVRQTGNTTRSGQRGNQSWRAVSRTNPNSGDFRFSLEINVNRNNGSQNSENENEPSARRSSGENVENNSQRQVENPRSESTSARPSRSERNSTEALTEVPPTRGQRRARSRSPDHRRTRARAERSRSPLHPMSEIPRRSHHSISSQTFEHPLVNETEGSSRTRHHVTLRQQISGPELLSRGLFAASGTRNASQGAGSSDTAASGESTGSGQRPPTIVLDLQVRRVRPGEYRQRDSIASRTRSRSQTPNNTVTYESERGGFRRTFSRSERAGVRTYVSTIRIPIRRILNTGLSETTSVAIQTMLRQIMTGFGELSYFMYSDSDSEPTGSVSNRNMERAESRSGRGGSGGGSSSGSSSSSSSSSSSSSSSSSSSSPSSSSGGESSETSSDLFEGSNEGSSSSGSSGARREGRHRAPVTFDESGSLPFLSLAQFFLLNEDDDDQPRGLTKEQIDNLAMRSFGENDALKTCSVCITEYTEGNKLRKLPCSHEYHVHCIDRWLSENSTCPICRRAVLASGNRESVV
B4: MLLT10, P55197 (protein)
chain: MVSSDRPVSLEDEVSHSMKEMIGGCCVCSDERGWAENPLVYCDGHGCSVAVHQACYGIVQVPTGPWFCRKCESQERAARVRCELCPHKDGALKRTDNGGWAHVVCALYIPEVQFANVSTMEPIVLQSVPHDRYNKTCYICDEQGRESKAATGACMTCNKHGCRQAFHVTCAQFAGLLCEEEGNGADNVQYCGYCKYHFSKLKKSKRGSNRSYDQSLSDSSSHSQDKHHEKEKKKYKEKDKHKQKHKKQPEPSPALVPSLTVTTEKTYTSTSNNSISGSLKRLEDTTARFTNANFQEVSAHTSSGKDVSETRGSEGKGKKSSAHSSGQRGRKPGGGRNPGTTVSAASPFPQGSFSGTPGSVKSSSGSSVQSPQDFLSFTDSDLRNDSYSHSQQSSATKDVHKGESGSQEGGVNSFSTLIGLPSTSAVTSQPKSFENSPGDLGNSSLPTAGYKRAQTSGIEEETVKEKKRKGNKQSKHGPGRPKGNKNQENVSHLSVSSASPTSSVASAAGSITSSSLQKSPTLLRNGSLQSLSVGSSPVGSEISMQYRHDGACPTTTFSELLNAIHNGIYNSNDVAVSFPNVVSGSGSSTPVSSSHLPQQSSGHLQQVGALSPSAVSSAAPAVATTQANTLSGSSLSQAPSHMYGNRSNSSMAALIAQSENNQTDQDLGDNSRNLVGRGSSPRGSLSPRSPVSSLQIRYDQPGNSSLENLPPVAASIEQLLERQWSEGQQFLLEQGTPSDILGMLKSLHQLQVENRRLEEQIKNLTAKKERLQLLNAQLSVPFPTITANPSPSHQIHTFSAQTAPTTDSLNSSKSPHIGNSFLPDNSLPVLNQDLTSSGQSTSSSSALSTPPPAGQSPAQQGSGVSGVQQVNGVTVGALASGMQPVTSTIPAVSAVGGIIGALPGNQLAINGIVGALNGVMQTPVTMSQNPTPLTHTTVPPNATHPMPATLTNSASGLGLLSDQQRQILIHQQQFQQLLNSQQLTPEQHQAFLYQLMQHHHQQHHQPELQQLQIPGPTQIPINNLLAGTQAPPLHTATTNPFLTIHGDNASQKVARLSDKTGPVAQEKS
B5: PSMD10, O75832 (protein)
chain: MEGCVSNLMVCNLAYSGKLEELKESILADKSLATRTDQDSRTALHWACSAGHTEIVEFLLQLGVPVNDKDDAGWSPLHIAASAGRDEIVKALLGKGAQVNAVNQNGCTPLHYAASKNRHEIAVMLLEGGANPDAKDHYEATAMHRAAAKGNLKMIHILLYYKASTNIQDTEGNTPLHLACDEERVEEAKLLVSQGASIYIENKEEKTPLQVAKGGLGLILKRMVEG
B6: ZNF202, O95125 (protein)
chain: MATAVEPEDQDLWEEEGILMVKLEDDFTCRPESVLQRDDPVLETSHQNFRRFRYQEAASPREALIRLRELCHQWLRPERRTKEQILELLVLEQFLTVLPGELQSWVRGQRPESGEEAVTLVEGLQKQPRRPRRWVTVHVHGQEVLSEETVHLGVEPESPNELQDPVQSSTPEQSPEETTQSPDLGAPAEQRPHQEEELQTLQESEVPVPEDPDLPAERSSGDSEMVALLTALSQGLVTFKDVAVCFSQDQWSDLDPTQKEFYGEYVLEEDCGIVVSLSFPIPRPDEISQVREEEPWVPDIQEPQETQEPEILSFTYTGDRSKDEEECLEQEDLSLEDIHRPVLGEPEIHQTPDWEIVFEDNPGRLNERRFGTNISQVNSFVNLRETTPVHPLLGRHHDCSVCGKSFTCNSHLVRHLRTHTGEKPYKCMECGKSYTRSSHLARHQKVHKMNAPYKYPLNRKNLEETSPVTQAERTPSVEKPYRCDDCGKHFRWTSDLVRHQRTHTGEKPFFCTICGKSFSQKSVLTTHQRIHLGGKPYLCGECGEDFSEHRRYLAHRKTHAAEELYLCSECGRCFTHSAAFAKHLRGHASVRPCRCNECGKSFSRRDHLVRHQRTHTGEKPFTCPTCGKSFSRGYHLIRHQRTHSEKTS

For this experiment, the target named is nucleoprotein N of Crimean-Congo hemorrhagic fever virus. The experiment can be described thus: AlphaScreen luminescence signal relative to Venus negative control (fold); higher = stronger binding to CCHFV N. The procedure:
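AlphaScreen binding of cell-free made, FLAG-GST-tagged human transcription factors and regulators (crude translation products) to biotinylated N protein; signal as fold of the FLAG-GST-Venus control. One pass.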
On to B1, for which the AlphaScreen luminescence signal amounted to 2.42.
In the case of B2 it was 1.95; in that of B3, 2.93.
B4 showed an AlphaScreen luminescence signal of 1.3.
Take B5: the AlphaScreen luminescence signal was found to be 1.02.
Turning to B6, the AlphaScreen luminescence signal came to 2.05.
